Test results published in PubChem BioAssay (NCATS).
Several values for one entry are separate records, joined by “and”; a condition that tells them apart may be missing. Equal values may be shown once. The shares of active, inactive and inconclusive entries below differ from those in the screen. For some of these results: Where the call is inconclusive, the potency comes from a doubtful curve fit. More than one record can exist for a structure, and the calls need not agree. Activity calls are given as the source filed them. Unless noted, calls come from the whole dose curve; as a rule, active = well fitted curve in the direction sought with a large enough effect; inconclusive = small, poorly fitted or top-dose-only effect, or another doubt; inactive = no such curve, though single readings can be large; an effect the other way counts as inactive or inconclusive.

What was measured:
[1] = biological target: 3',5'-cyclic-AMP phosphodiesterase 4B (Homo sapiens) (UniProt Q07343); experiment: qHTS Assay for Inhibitors of PDE-IV (AID 607; active = well fitted activation curve with a large enough effect in the main read-out, with a control signal flat, not every such curve was filed as active; inconclusive = small, poorly fitted or top-dose-only effect, or effect the other way, or a change in a side signal; note: potency is the fitted concentration of half-maximal effect; for activation (PDE inhibition): % of control where 0% means no effect); settings: HEK293 ACTOne CNG channel cells, membrane potential fluorescence; activation (PDE inhibition): at 22.9 µM (top of the series)
Method in brief: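 Cell-based read-out of cAMP via a modified cyclic nucleotide-gated channel and membrane potential dye (535/590 nm) in HEK293 cells expressing PDE4 endogenously. Compounds tested up to 22.9 uM final; 100 uM RO 20-1724 reference.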

[2] = biological target: Cytochrome P450 2C9 (Homo sapiens) (UniProt P11712); experiment: qHTS Assay for Inhibitors and Substrates of Cytochrome P450 2C9 (AID 883); note: nearly all actives have a fitted effect of over 60% in size; note: potency is the fitted concentration of half-maximal effect
Method in brief: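 CYP2C9 deoxyluciferin hydroxylation, 37C, 60 min with NADPH regeneration; 10nM enzyme, 100uM Luciferin-H (KM). Glo detection reagent stopped reaction; luminescence normalized to sulphaphenazole (57uM) full inhibition.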

[3] = Confirmatory qHTS for small molecule stabilizers of the endoplasmic reticulum resident proteome: Secreted ER Calcium Modulated Protein (SERCaMP) assay (AID 1508628); note: nearly all actives have a fitted effect of over 40% in size; note: potency is the fitted concentration of half-maximal effect
Method in brief: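 Reporter secretion upon ER calcium depletion (100 nM thapsigargin, 4 h, 37C) is measured as medium luminescence with coelenterazine, after 16 h compound pretreatment of SH-SY5Y-GLuc-SERCaMP cells; primary at three concentrations up to 38.3 uM, follow-up at 11 (up to 76.6 uM).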

[4] = Cell Viability qHTS for small molecule stabilizers of the endoplasmic reticulum resident proteome (AID 1508629); settings: cell viability counter-screen, 100 nM thapsigargin for final 4 h;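 note: compound exposure about 46 h in total before the viability read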; note: potency is the fitted concentration of half-maximal effect
[5] = Primary qHTS for small molecule stabilizers of the endoplasmic reticulum resident proteome: Secreted ER Calcium Modulated Protein (SERCaMP) assay (AID 1508630); settings: SH-SY5Y GLuc-SERCaMP (Gaussia luciferase released on ER calcium loss) secretion, thapsigargin, luminescence; activity change, negative = inhibition: at 38.4 µM (top of the series) unless noted; note: potency is the fitted concentration of half-maximal effect
Method in brief: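 The SH-SY5Y reporter protocol was run at 3 concentrations up to 38.3 uM (primary) or 11 concentrations (follow-up): 16 h compound, 100 nM thapsigargin for 4 h, then extracellular luciferase luminescence.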

[6] = qHTS Assay for Identification of Small Molecule Antagonists for NFkB Signaling Pathway (AID 895; active = well fitted inhibition curve with a large enough effect in the signal ratio, with a control signal flat, not every such curve was filed as active; inconclusive = small, poorly fitted or top-dose-only effect, or effect the other way, or a change in a side signal; the % refers to the signal ratio; note: % is set by controls: 0 for no effect and ±100 for the full control effect); settings: NFkB beta-lactamase reporter cells, FRET ratio 460/530, stimulated with 10 pM TNF alpha; activity change, negative = inhibition: at 38.3 µM (top of the series)
Method in brief: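 NFkB-bla ME-180 cervical carcinoma cells with beta-lactamase reporter under NFkB response element; compounds added, then TNF alpha at 10 pM final (EC50), 5 h at 37 C. LiveBLAzer substrate 2 h, room temperature; emission 460/530 nm at 405 nm excitation.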

[7] = qHTS Assay for Identification of Small Molecule Antagonists for Thrombopoietin (TPO) Signaling Pathway (AID 918); settings: TPO-dependent cell signaling reporter, antagonist mode; activity change, negative = inhibition: at 38.5 µM (top of the series); note: nearly all actives have a fitted effect of over 60% in size
Method in brief: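 Inhibition read as reduced luciferase luminescence after 24 h at 37 C in IL-3-deprived Ba/F3 cells carrying human TPO receptor and GPIIb-promoter reporter, stimulated with 26 pM TPO (final, its EC50) alongside compound.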

[8] = biological target: Muscarinic acetylcholine receptor M1 (Rattus norvegicus) (UniProt P08482); experiment: qHTS Assay for Antagonists of Acetylcholine Muscarinic M1 Receptor: Measurement of IP-One Response (AID 944); note: nearly all actives have a fitted effect of over 75% in size
[9] = qHTS Assay for Lipid Storage Modulators (AID 1519; calls by dose curve; note: % is set by controls: 0 for no effect and ±100 for the full control effect); settings: Drosophila S3 cells, BODIPY lipid droplet/cell ratio, laser cytometry, cells loaded with oleic acid; activity change, negative = inhibition: at 57.5 µM (top of the series) unless noted
Method in brief: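 Cells seeded at 5,000 per well were treated with compounds over a concentration series and loaded with oleic acid (400 uM, as added). Lipid droplet fluorescence (488 nm excitation, 500-530 nm channel) was read by laser-scanning cytometry and normalized to 20 uM Triacsin C.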

[10] = biological target: Ubiquitin carboxyl-terminal hydrolase 1 (Homo sapiens) (UniProt O94782); experiment: Inhibitors of USP1/UAF1: Pilot qHTS (AID 504865);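 note: rhodamine fluorescence freed from ubiquitin-rhodamine substrate followed over time; potency is the fitted concentration of half-maximal effect; nearly all actives have a fitted effect of over 35% in size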
Method in brief: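 Enzyme-free wells gave the negative control, while test wells held 1nM USP1/UAF1 preincubated with compound for 15 min at room temperature. Ub-Rho at 150nM final started the reaction, and fluorescence at 480/540 nm was recorded kinetically.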

[11] = biological target: Cytochrome P450 1A2 (Homo sapiens) (UniProt P05177); experiment: p450-cyp1a2 (AID 410; calls by dose curve; note: potency is the fitted concentration of half-maximal effect)
Method in brief: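 Luminescent demethylation readout: Luciferin-ME (100uM, equal to Km) turned over by 20nM CYP1A2 for 60 min at room temperature after NADPH regeneration addition, following 10 min compound preincubation. Normalization used 57 uM furafylline as full inhibition.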

[12] = biological target: Cytochrome P450 2D6 (Homo sapiens) (UniProt P10635); experiment: qHTS Assay for Inhibitors and Substrates of Cytochrome P450 2D6 (AID 891);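 note: luciferin methyl ether substrate demethylated by CYP2D6 with NADPH regeneration; top concentration of the series differs between compounds; % is set by controls: 0 for no effect and ±100 for the full control effect; nearly all actives have a fitted effect of over 60% in size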
Method in brief: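 Luminescent read-out of luciferin formed by 5 nM human CYP2D6 demethylating 30 uM Luciferin-ME EGE (Km level) over 60 min at room temperature after NADPH regeneration addition. Data normalized to full inhibition by 1.43 uM quinidine.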

[13] = qHTS Assay for Identification of Small Molecule Agonists for Hypoxia Response Element Signaling Pathway (AID 914; active = well fitted activation curve with a large enough effect in the signal ratio, with a control signal flat, not every such curve was filed as active; inconclusive = small, poorly fitted or top-dose-only effect, or effect the other way, or a change in a side signal; the % refers to the signal ratio; note: potency is the fitted concentration of half-maximal effect; for activation: top concentration of the series differs between compounds; % of control where 0% means no effect); settings: ME-180 HRE-bla reporter, beta-lactamase ratio, CoCl2, 17 h; activation: stronger effect = higher value
Method in brief: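 HRE-bla ME-180 cells, overnight plating in Opti-MEM with 0.5% dialyzed FBS; cpd titration + EC50 CoCl2, 17 h, 37 degrees Celsius; CCF4 2.5 h RT; 460/530 nm ratio; AC50.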

[14] = NFAT Signaling Pathway (AID 444; active = well fitted curve in either direction with a large enough effect, not every such curve was filed as active; inconclusive = small, poorly fitted or top-dose-only effect, or another doubt;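 note: carbachol stimulus at about its EC50 of 1 µM final; % is set by controls: 0 for no effect and ±100 for the full control effect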); settings: Jurkat NFAT-bla M1, carbachol, beta-lactamase ratio, 5 h; at 7.69 µM (top of the series) unless noted
Method in brief: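 Jurkat cells carrying an NFAT-driven β-lactamase reporter and co-transfected muscarinic M1 receptor were treated with compound plus carbachol (1 uM final, an EC50 level) for 5 h at 37 °C. CCF4 loading followed for 1 h at RT; 460/530 nm ratio gave %activity.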

[15] = biological target: Dual specificity protein kinase CLK4 (Homo sapiens) (UniProt Q9HAZ1); experiment: qHTS Assay for Inhibitors of CDC-like Kinase 4 (Kinase-Glo Assay) (AID 1770); note: % is set by controls: 0 for no effect and ±100 for the full control effect; nearly all actives have a fitted effect of over 65% in size
Method in brief: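 Clk4 25 nM, RS peptide 100 uM, ATP 1 uM, pH 7.5 Tris, 10 mM MgCl2, 2.5 mM DTT; 4.5 h RT; ATP depletion read by Kinase-Glo luminescence.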

[16] = biological target: Dual specificity protein kinase CLK4 (Homo sapiens) (UniProt Q9HAZ1); experiment: qHTS Assay for Inhibitors of CDC-like Kinase 4 (ADP-Glo Assay) (AID 1771); note: % is set by controls: 0 for no effect and ±100 for the full control effect; nearly all actives have a fitted effect of over 70% in size
Method in brief: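 ADP production was read by ADP-Glo luminescence after residual ATP depletion, following 1 h room-temperature reaction of 25 nM Clk4, 1 uM ATP and 100 uM RS peptide with MgCl2, EGTA, DTT and Triton X-100.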

[17] = AP1 Signaling Pathway (AID 357; active = well fitted curve in either direction with a large enough effect, not every such curve was filed as active; inconclusive = small, poorly fitted or top-dose-only effect, or another doubt; note: top concentration of the series differs between compounds; % is set by controls: 0 for no effect and ±100 for the full control effect); settings: ME-180 AP-1-bla reporter, EGF-induced, beta-lactamase ratio, 5 h; at 7.69 µM (top of the series) unless noted
Method in brief: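 ME-180 cells with beta-lactamase reporter under AP-1 response element, stimulated with EC50 EGF; compounds tested in titration series, 5 h at 37 °C. CCF4 substrate added 2.5 h at room temperature; 460/530 nm emission ratio gave %activity and AC50.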

[18] = Primary qHTS for inhibitors of nuclear receptor binding SET domain protein 2 (NSD2) in an isogenic RCH-ACV NSD2 p.E1099K mutant (9B) (AID 1645876); note: potency is the fitted concentration of half-maximal effect; nearly all actives have a fitted effect of over 70% in size
[19] = Primary qHTS for inhibitors of nuclear receptor binding SET domain protein 2 (NSD2) in an RCH-ACV wild type WT cells (2C) (AID 1645877); note: % is set by controls: 0 for no effect and ±100 for the full control effect; nearly all actives have a fitted effect of over 70% in size
[20] = biological target: Glucocorticoid receptor (Homo sapiens) (UniProt P04150); experiment: GR-EFC Redistribution (AID 451; calls by dose curve; note: potency is the fitted concentration of half-maximal effect); settings: CHO-K1 GR-EFC translocation, beta-gal luminescence, 2 h
Method in brief: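 CHO-K1 cells stably expressing nuclear-localized β-gal enzyme acceptor and GR fused C-terminally to the enzyme donor fragment; ligand-driven nuclear translocation restores β-gal by complementation. Compounds titrated up to 46 uM final, 2 h at 37 °C; luminescence read.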
Tags give direction and shape of the fitted curve or compound fluorescence and quenching.

UniProt Q07343, sequence (Q07343 whole entry, looked up): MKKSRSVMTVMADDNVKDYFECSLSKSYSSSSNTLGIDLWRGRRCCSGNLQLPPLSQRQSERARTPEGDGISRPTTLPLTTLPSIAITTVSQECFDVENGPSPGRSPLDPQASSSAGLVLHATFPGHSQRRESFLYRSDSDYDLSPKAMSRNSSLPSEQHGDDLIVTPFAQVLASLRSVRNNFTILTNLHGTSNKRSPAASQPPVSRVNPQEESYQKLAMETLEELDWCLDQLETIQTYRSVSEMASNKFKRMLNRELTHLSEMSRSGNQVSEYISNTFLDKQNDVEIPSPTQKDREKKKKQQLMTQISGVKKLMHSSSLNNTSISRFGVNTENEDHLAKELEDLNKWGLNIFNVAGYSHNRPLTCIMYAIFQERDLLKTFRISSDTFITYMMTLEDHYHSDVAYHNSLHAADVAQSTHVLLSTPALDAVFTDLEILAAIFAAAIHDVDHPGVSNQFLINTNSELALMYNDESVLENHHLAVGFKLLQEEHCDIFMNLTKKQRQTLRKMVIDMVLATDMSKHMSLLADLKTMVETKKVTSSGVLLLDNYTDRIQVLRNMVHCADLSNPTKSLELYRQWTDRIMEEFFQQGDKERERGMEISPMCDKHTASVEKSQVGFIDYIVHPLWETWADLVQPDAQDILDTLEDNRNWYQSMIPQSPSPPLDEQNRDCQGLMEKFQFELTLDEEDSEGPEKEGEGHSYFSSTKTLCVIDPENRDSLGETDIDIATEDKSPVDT
UniProt O94782, sequence (O94782 whole entry, looked up): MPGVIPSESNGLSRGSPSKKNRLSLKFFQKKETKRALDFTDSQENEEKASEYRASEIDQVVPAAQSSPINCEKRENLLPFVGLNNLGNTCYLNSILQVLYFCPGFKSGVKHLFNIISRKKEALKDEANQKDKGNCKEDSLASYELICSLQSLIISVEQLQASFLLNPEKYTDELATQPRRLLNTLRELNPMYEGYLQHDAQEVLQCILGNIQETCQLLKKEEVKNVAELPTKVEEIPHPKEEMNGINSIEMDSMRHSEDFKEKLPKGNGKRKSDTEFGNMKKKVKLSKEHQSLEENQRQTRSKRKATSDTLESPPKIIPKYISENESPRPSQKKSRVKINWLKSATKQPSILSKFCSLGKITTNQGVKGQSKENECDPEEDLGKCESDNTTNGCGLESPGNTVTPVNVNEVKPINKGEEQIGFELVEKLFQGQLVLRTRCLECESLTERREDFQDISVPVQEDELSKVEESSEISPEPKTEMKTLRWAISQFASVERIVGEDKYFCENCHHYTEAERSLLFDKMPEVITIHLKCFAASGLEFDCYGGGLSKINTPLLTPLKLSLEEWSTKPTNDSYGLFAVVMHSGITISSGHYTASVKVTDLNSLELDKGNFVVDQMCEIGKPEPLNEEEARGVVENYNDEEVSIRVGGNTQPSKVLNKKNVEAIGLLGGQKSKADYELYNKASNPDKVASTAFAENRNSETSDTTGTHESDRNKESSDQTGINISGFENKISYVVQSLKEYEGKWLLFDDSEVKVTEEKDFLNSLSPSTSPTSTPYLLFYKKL
UniProt Q9HAZ1, sequence (Q9HAZ1 whole entry, looked up): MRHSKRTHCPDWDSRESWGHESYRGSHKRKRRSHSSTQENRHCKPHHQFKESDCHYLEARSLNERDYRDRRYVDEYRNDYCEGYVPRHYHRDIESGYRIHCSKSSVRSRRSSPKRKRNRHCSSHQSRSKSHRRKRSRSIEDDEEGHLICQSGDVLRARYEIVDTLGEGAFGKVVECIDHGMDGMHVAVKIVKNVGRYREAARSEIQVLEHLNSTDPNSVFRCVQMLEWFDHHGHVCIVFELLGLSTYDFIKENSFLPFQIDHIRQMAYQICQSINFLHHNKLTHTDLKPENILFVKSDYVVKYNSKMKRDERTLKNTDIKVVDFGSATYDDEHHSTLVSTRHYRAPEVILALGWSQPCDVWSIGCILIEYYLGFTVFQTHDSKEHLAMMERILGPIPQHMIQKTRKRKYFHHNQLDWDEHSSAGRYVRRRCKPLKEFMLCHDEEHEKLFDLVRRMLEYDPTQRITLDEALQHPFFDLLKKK
UniProt P11712, sequence (P11712 whole entry, looked up): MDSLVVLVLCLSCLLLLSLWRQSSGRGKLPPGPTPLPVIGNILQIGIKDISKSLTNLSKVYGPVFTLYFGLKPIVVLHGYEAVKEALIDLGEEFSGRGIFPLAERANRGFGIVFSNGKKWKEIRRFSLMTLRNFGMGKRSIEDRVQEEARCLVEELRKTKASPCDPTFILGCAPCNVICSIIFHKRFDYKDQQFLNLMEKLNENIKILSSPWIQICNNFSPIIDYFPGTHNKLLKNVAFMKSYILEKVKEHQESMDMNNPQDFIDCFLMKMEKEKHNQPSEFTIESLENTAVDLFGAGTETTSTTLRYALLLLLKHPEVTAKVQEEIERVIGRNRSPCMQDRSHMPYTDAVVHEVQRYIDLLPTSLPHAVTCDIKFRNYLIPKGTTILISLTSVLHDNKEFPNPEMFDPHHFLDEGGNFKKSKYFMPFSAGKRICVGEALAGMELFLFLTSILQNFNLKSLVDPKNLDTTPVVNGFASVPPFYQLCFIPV
UniProt P10635, sequence (P10635 whole entry, looked up): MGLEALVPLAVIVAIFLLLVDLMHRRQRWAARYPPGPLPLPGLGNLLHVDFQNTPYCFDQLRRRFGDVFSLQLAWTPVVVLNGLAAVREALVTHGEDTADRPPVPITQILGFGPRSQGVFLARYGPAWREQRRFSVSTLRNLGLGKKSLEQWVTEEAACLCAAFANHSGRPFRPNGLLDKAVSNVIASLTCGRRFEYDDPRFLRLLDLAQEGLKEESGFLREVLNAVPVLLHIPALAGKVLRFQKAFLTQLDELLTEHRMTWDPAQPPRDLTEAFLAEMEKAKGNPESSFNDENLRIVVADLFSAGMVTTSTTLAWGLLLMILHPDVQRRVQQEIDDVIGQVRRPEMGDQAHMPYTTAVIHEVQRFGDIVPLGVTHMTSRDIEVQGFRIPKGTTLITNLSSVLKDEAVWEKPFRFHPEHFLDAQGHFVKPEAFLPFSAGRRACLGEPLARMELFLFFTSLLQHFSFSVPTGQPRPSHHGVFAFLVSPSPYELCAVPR
UniProt P05177, sequence (P05177 whole entry, looked up): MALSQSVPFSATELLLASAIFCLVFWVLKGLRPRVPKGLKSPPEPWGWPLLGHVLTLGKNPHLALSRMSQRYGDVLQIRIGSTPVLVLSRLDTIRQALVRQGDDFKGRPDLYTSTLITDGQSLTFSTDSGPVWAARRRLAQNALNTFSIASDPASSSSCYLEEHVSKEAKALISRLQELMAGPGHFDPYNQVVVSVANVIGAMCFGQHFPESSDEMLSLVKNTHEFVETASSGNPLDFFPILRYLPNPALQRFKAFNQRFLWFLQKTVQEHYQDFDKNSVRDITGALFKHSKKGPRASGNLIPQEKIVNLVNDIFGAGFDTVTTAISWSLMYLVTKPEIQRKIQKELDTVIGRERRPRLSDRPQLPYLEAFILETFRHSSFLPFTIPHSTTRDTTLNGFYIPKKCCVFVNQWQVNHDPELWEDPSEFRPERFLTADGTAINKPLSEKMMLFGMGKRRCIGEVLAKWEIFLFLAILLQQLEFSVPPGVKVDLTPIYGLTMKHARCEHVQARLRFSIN
UniProt P08482, sequence (P08482 whole entry, looked up): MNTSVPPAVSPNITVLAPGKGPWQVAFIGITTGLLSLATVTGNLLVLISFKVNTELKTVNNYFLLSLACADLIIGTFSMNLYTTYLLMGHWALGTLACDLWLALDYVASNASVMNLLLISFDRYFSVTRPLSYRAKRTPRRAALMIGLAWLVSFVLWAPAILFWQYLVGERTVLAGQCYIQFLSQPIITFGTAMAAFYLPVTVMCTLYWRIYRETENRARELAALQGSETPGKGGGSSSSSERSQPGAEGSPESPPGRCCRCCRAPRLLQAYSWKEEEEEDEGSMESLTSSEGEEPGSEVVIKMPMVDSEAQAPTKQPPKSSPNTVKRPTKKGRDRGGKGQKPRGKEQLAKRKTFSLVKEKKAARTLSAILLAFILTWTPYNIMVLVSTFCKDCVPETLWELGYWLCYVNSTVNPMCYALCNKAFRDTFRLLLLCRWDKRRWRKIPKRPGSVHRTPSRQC
UniProt P04150, sequence (P04150 whole entry, looked up, the tested form may be a part): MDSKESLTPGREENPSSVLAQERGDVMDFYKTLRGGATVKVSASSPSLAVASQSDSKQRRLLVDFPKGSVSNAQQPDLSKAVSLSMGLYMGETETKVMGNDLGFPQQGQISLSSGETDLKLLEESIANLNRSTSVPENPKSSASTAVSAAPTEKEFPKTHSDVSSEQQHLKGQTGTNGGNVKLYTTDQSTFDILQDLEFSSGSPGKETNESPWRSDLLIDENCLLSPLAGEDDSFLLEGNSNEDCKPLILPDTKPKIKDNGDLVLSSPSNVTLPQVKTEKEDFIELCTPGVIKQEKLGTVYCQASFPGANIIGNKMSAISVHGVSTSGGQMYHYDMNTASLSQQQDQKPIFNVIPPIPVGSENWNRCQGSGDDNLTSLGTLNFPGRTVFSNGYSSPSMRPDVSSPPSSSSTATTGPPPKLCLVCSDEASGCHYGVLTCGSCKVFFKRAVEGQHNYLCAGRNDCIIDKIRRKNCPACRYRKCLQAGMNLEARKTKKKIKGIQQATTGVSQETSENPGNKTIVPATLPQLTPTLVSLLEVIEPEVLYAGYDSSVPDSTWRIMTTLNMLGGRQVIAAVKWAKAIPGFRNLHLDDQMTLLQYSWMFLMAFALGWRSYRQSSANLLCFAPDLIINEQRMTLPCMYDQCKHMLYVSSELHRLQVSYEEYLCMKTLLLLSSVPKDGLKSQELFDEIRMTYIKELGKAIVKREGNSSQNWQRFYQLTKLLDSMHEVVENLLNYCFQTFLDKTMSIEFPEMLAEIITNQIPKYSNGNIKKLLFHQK

FC(F)(F)c1ccccc1-c1nccc(N2CCNCC2)n1
Potency [1]: inactive
activity change, negative = inhibition [2]: inactive: 37.4% [at 2.29 µM]
Potency [3]: active: 15.8 µM
Potency [4]: inconclusive: 8.91 µM [cytotoxic, partial curve, poor fit]
Potency [5]: inconclusive: 10 µM [inhibitor, partial curve, poor fit]

O=C1N=C(O)CN1/N=C\c1ccc(-c2ccc([N+](=O)[O-])cc2)o1
Potency [1]: inconclusive: 15.1 µM [inhibitor, single point]
activity change, negative = inhibition [6]: inconclusive: -26.7%
activity change, negative = inhibition [7]: inconclusive: -11.9% [phenotype inactive]
Potency [8]: inactive
activity change, negative = inhibition [9]: inconclusive: 12.8%
Potency [10]: inconclusive: 35.5 µM [inhibitor, partial curve]
Potency [3]: inconclusive: 11.2 µM [inhibitor, full curve]
Potency [4]: inconclusive: 0.126 µM [rising, full curve]

COc1ccc(/C=C\C(=O)Nc2ccccc2C(=O)O)cc1OC
Potency [11]: inconclusive: 39.8 µM [decreasing]
Potency [12]: inactive
Potency [13]: inconclusive: 25.1 µM [activator, single point]
Potency [3]: inconclusive: 20 µM [inhibitor, partial curve, poor fit]
max response [4]: inactive: -9.06%
Potency [5]: inconclusive: 11.2 µM [inhibitor, partial curve, poor fit]

O=S(=O)(c1ccccc1)N1CCC[C@@]2(CCN(c3ccncc3)C2)C1
activity change, negative = inhibition [14]: inconclusive: -33.9% [inhibitor]
Potency [3]: inconclusive: 39.8 µM [inhibitor, partial curve]
Potency [4]: inconclusive: 0.0891 µM [rising, full curve]
Potency [5]: inconclusive: 10 µM [inhibitor, partial curve, poor fit]

COCCn1c(=O)c(-c2cn(C)c3ccccc23)nc2cnc(N3CCNCC3)nc21
Potency [13]: active: 3.16 µM
activity change, negative = inhibition [9]: inconclusive: 5.44%
Potency [15]: inactive
Potency [16]: inactive
Potency [3]: inconclusive: 39.8 µM [inhibitor, partial curve, poor fit]
Potency [5]: inconclusive: 5.01 µM [inhibitor, partial curve, poor fit]

O=C(c1ccco1)N1CCC[C@@]2(CCN(c3ccncc3)C2)C1
activity change, negative = inhibition [14]: inconclusive: -35.4% [inhibitor]
activity change, negative = inhibition [9]: inconclusive: 4.96%
Potency [4]: inconclusive: 0.158 µM [rising, full curve]
Potency [5]: inconclusive: 31.6 µM [inhibitor, partial curve, poor fit]

N#CCCn1c(=O)c(-c2cc(F)cc(F)c2)nc2cnc(OCc3ccccc3)nc21
activity change, negative = inhibition [17]: inactive: -10.3%
Potency [2]: inconclusive: 3.16 µM [inhibitor, full curve]
Potency [4]: inconclusive: 0.112 µM [rising, full curve]
Potency [5]: inconclusive: 11.2 µM [inhibitor, partial curve, poor fit]

C=C[C@H]1CN2CCC1C[C@@H]2C(O)c1ccnc2ccc(OC)cc12 (stereo not given in full)
Potency [3]: inactive
Potency [5]: inconclusive: 11.2 µM [inhibitor, partial curve, poor fit] and inconclusive: 35.5 µM [inhibitor, partial curve, poor fit]
Potency [18]: inconclusive: 18.6 µM [inhibitor, partial curve, poor fit]
Potency [19]: inactive

Cc1cccc(CNc2ncnc3ccc(-c4ccccc4CN(C)C)cc23)c1
activity change, negative = inhibition [14]: inconclusive: -34.3% [inhibitor]
Potency [20]: inactive: > 46 µM
Potency [1]: inconclusive: 0.501 µM [rising, full curve]
Potency [9]: inactive
Potency [10]: inconclusive: 56.2 µM [inhibitor, partial curve, poor fit]
Potency [3]: inconclusive: 39.8 µM [inhibitor, partial curve]
Potency [5]: inconclusive: 10 µM [inhibitor, partial curve, poor fit]

Cc1ccccc1-c1nc(NC2CCNCC2)c2ccccc2n1
activation [13]: inactive: 12.4%
activity change, negative = inhibition [9]: inconclusive: 7.7%
Potency [10]: inconclusive: 79.4 µM [inhibitor, partial curve, poor fit]
Potency [4]: inconclusive: 0.141 µM [rising, full curve]
Potency [5]: inconclusive: 11.2 µM [inhibitor, partial curve, poor fit]

CC(C)ON(C(C(=O)NO)C(C)C)S(=O)(=O)c1ccc(-c2ccccc2)cc1 (stereo not given)
Potency [3]: inconclusive: 1.58 µM [inhibitor, full curve, poor fit]
Potency [5]: inconclusive: 2.51 µM [inhibitor, full curve, poor fit]
